# About 4,000 (1.1%) of roughly 380,000 compounds were called active. Inconclusive means that the source gave no clear call. Such entries were picked first, then a sample of the others. The call rests on the fitted dose curve; in most records, active means well fitted activation curve with a large enough effect; inconclusive means small, poorly fitted or top-dose-only effect; inactive means no such curve, though single readings can be large or run the other way. Potencies beside an inconclusive call are fits to weak or partial responses and may not hold up. A structure can be active in one record and inactive in another.
# Test: qHTS Assay to Identify Small Molecule Activators of BRCA1 Expression; further: nearly all actives have a fitted effect of over 80% in size
# Conditions: MCF7-BRCA1-FFLuc reporter, luminescence, 48 h; activation: at 46.1 µM (top of the series), scaled: vehicle 0%, 10 µM genistein 100% unless noted
# In short: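 Quantitative HTS in MCF7 cells stably reporting BRCA1 expression via firefly luciferase. Compound treatment lasts 48 h at 37 °C in phenol-red free MEM. Activation is expressed relative to genistein at 10 microM and DMSO.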
# Potency means the concentration at half of the fitted maximal effect; tags describe the fitted curve by direction and shape.
Structure (SMILES),Potency,activation
CCc1ccc(NC(=S)N2CCCCCCC2)cc1,"inconclusive: 2 µM [activator, partial curve, poor fit]",–
CCc1cccc(N=c2c([N+](=O)[O-])nn(-c3ccc(Cl)cc3)n2O)c1,inactive,–
Cc1cc(/C=N/NC(=O)c2cccs2)c(C)n1-c1cnccn1,"inconclusive: 2.24 µM [activator, full curve, poor fit]",–
Brc1c(CSc2nc3ccccc3s2)nc2ncccn12,"inconclusive: 2.51 µM [activator, full curve, poor fit]",–
CN1OC[C@@H]2CN[C@H](c3ccc(-c4cccc(F)c4)cc3)C[C@@H]21,active: 11.2 µM,–
Cc1ccccc1C(=O)NCCOc1ccccc1Cl,"inconclusive: 1.26 µM [activator, full curve, poor fit]",–
N/C(=N\OC(=O)c1cccs1)c1cccnc1,"inconclusive: 12.6 µM [activator, partial curve, poor fit]",–
CCOc1cc(CNCc2ccccc2)ccc1OCc1ccc(Cl)cc1,inactive,–
CCCc1cc(C(=O)Nc2ccc(CC)cc2)no1,"inconclusive: 7.08 µM [activator, partial curve, poor fit]",–
Cc1ccc(NC(=O)C(=O)NCC2CCCO2)cc1C (stereo not given),"inconclusive: 14.1 µM [activator, partial curve, poor fit]",–
COc1ccc(C(Nc2cc(C)ccn2)c2ccc3ccc(C)nc3c2O)cc1 (stereo not given),inactive,–
Cc1cc(NC(=O)C2CCCC2)nc2c1c(=O)oc1ccccc12,inactive,–
c1ccc(-n2ncc3c(NCCN4CCOCC4)ncnc32)cc1,"inconclusive: 1.78 µM [activator, full curve, poor fit]",–
CCOC(=O)c1nnc2c(Br)c(-c3ccccc3)nn2c1C,inactive,–
Cc1ccc(NC(=O)CCOc2ccccc2C)cc1F,"inconclusive: 22.4 µM [activator, single point]",–
COc1ccc(C(=O)Nc2ccc(N3CCN(C)CC3)cc2)cc1OC,active: 2 µM,–
CC(C)NC(=O)c1ccc(N(Cc2ccc(Cl)cc2)S(C)(=O)=O)cc1,inactive,–
CCc1ccc(NC(=O)CN(CC(=O)Nc2ccc(CC)cc2)CC(C)O)cc1 (stereo not given),inactive,–
O=C(/C=C(\O)c1ccccc1)C(=O)NNC(=O)c1ccccc1,active: 12.6 µM,–
CC1(c2nc3ccccc3[nH]2)CCC(=O)N1Cc1ccc(F)cc1 (stereo not given),inactive,–
CC1=C(C(=O)Nc2ccccc2C)C(c2cccnc2)n2nc(SCc3ccccc3F)nc2N1 (stereo not given),inactive,–
Cc1oc(-c2ccc(Cl)cc2)cc1C(=O)N1CCC1(C)C(=O)O (stereo not given),active: 8.91 µM,–
COc1ccc2nc(NC(=S)N(C)C)sc2c1,"inconclusive: 0.631 µM [activator, full curve, poor fit]",–
COc1ccc(C(=O)/C=C/c2ccc(N3CCCCC3)c([N+](=O)[O-])c2)c(OC)c1,inactive,–
CC(NC(=O)c1cc(COc2c(F)cccc2F)on1)c1cnn(-c2ccccc2)c1 (stereo not given),active: 7.08 µM,–
N#Cc1cn(-c2ccccc2)nc1-c1ccc2c(c1)OCCO2,"inconclusive: 2 µM [activator, partial curve, poor fit]",–
O=C(O)CSc1cc(C(=O)c2ccccc2O)cn2c(=O)c3c4c(sc3nc12)CCCC4,"inconclusive: 25.1 µM [activator, single point]",–

Structure (SMILES),Potency,activation
C/C(=N/NC(=O)c1ccoc1C)c1cccc(NC(=O)C(F)(F)F)c1,"inconclusive: 25.1 µM [activator, single point]",–
CCc1c(C)nc2cc(-c3ccc(OC)cc3)[nH]n2c1=O,active: 8.91 µM,–
O=C1C=C(Nc2ccccc2)C(=O)c2ccccc21,–,inconclusive: -70.1% [activator]
CC(=O)N/C(=C/c1ccccc1)c1sc2ccccc2[n+]1CCCCI,"inconclusive: 22.4 µM [activator, single point]",–
Cc1c(O)cc2c(c1O)C(=O)CC(c1ccccc1)O2 (stereo not given),–,inconclusive: -68.4% [activator]
COc1ccc(-c2c(C)nc3c(-c4ccc(F)cc4)cnn3c2N)cc1,"inconclusive: 1.12 µM [activator, full curve, poor fit]",–
Cc1ccc(SC/C(O)=C(\C#N)c2nc3ccccc3n2C)cc1,active: 12.6 µM,–
CC(=O)Cn1ncc(N(C)Cc2ccccc2)c(Cl)c1=O,"inconclusive: 12.6 µM [activator, single point]",–
Cc1ccnc(SCC(=O)N2CCc3ccccc32)n1,active: 10 µM,–
CCn1c(C(=O)NC2CCC(C)CC2)cc2sccc21 (stereo not given),"inconclusive: 1.41 µM [activator, partial curve, poor fit]",–
Clc1ccc(/C=N/Nc2ncnc3nc[nH]c23)cc1,"inconclusive: 10 µM [activator, partial curve, poor fit]",–
CN(C)C(=O)c1ccc(NC(=O)c2cncc(Br)c2)cc1,active: 11.2 µM,–
CC1(C(=O)Nc2nc3ccccc3s2)CC1(Br)Br (stereo not given),"inconclusive: 17.8 µM [activator, partial curve, poor fit]",–
Cc1nn(-c2cccc([N+](=O)[O-])c2)c(N)c1-c1ccccc1,"inconclusive: 14.1 µM [activator, partial curve, poor fit]",–
CCCn1nnc(NC(=O)c2ccc(Br)cc2)n1,"inconclusive: 7.94 µM [activator, partial curve, poor fit]",–
COc1cnc(-c2ccccc2)nc1Oc1cccc(C)c1C,inactive,–
CCOC(=O)COc1ccc(/C=C2/C(=O)NN(c3ccc(F)cc3)C2=O)cc1OC,inactive,–
COc1cccc(NC(=O)c2ccc(NC(=O)C(C)C)cc2)c1,active: 10 µM,–
Cc1ccc(NC(=O)Nc2ccc(F)c(Cl)c2)cc1,"inconclusive: 1.78 µM [activator, full curve, poor fit]",–
Fc1ccc(COc2ccc(/C=N/n3cnnc3)cc2)cc1,active: 15.8 µM,–
O=C(O)CCC(=O)Nc1nc2nc(-c3ccccc3)cc(-c3ccccc3)n2n1,inactive,–
N#Cc1ccccc1OCC(=O)Nc1ccc2c(c1)OCCO2,"inconclusive: 5.62 µM [activator, full curve, poor fit]",–
COc1ccc(/C(C)=N/Nc2ccccc2Cl)c(O)c1,"inconclusive: 35.5 µM [activator, single point]",–
COc1ccc(CCNC(=O)COc2ccc(S(=O)(=O)NC3CCCCC3)cc2Cl)cc1,inactive,–
COC(=O)c1ccc(/C=N\N2CCN(c3ccccc3)CC2)cc1,"inconclusive: 8.91 µM [activator, partial curve, poor fit]",–
Clc1cccc(OCc2nnc(-c3ccccc3Br)o2)c1,"inconclusive: 17.8 µM [activator, partial curve, poor fit]",–
O=C1/C(=C/c2ccccc2)CSc2sccc21,inactive,–

Structure (SMILES),Potency,activation
c1ccc(-c2csc(NC3CCCCC3)n2)cc1,active: 2.82 µM,–
Cc1cnc(NCCc2ccccc2)s1,"inconclusive: 12.6 µM [activator, partial curve, poor fit]",–
O=[N+]([O-])c1ccc(Cl)c(/C=N/N2CCN(c3ccccc3)CC2)c1,inactive,–
O=C(COc1ccccc1F)N/N=C1\CCCc2ccccc21,"inconclusive: 6.31 µM [activator, partial curve, poor fit]",–
O=C(/C=C/c1ccc(N2CCOCC2)cc1)c1ccccc1,active: 3.16 µM,–
O=C(N/N=C/c1ccncc1)c1sc2ccccc2c1Cl,inactive,–
CC(C)Cc1cc(C(=O)Nc2cc(Br)ccc2O)no1,"inconclusive: 7.94 µM [activator, partial curve, poor fit]",–
Cc1ccccc1NC(=O)CN1C(=S)NC(C)(C)CC1C (stereo not given),inactive,–
CN(c1ccccc1)S(=O)(=O)c1cccc(NC(=O)Cn2cnc3c2c(=O)n(C)c(=O)n3C)c1,inactive,–
CCC(C)Nc1nnnc2c1sc1nc3c(cc12)COC(C)(C)C3 (stereo not given),"inconclusive: 35.5 µM [activator, single point]",–
Cc1ccc2nc(-c3cccnc3)oc2c1,active: 3.16 µM,–
Cc1ccc(F)cc1-c1nc(NCC2CC2)nc2ccsc12,inactive,–
CCc1sc(C(=O)Nc2ccc3c(c2)OCO3)cc1C,"inconclusive: 2.24 µM [activator, full curve, poor fit]",–
CCCOC(=O)c1ccc(NC(=O)C2CCCO2)cc1 (stereo not given),active: 11.2 µM,–
CC(=O)Oc1c(Br)cc(N(C(C)=O)S(=O)(=O)c2ccccc2)c2ccccc12,inactive,–
Cc1ccc(S(=O)(=O)N2CCC[C@H]2C(=O)OCC(=O)N2CCc3ccccc32)cc1,inactive,–
CCOc1ccc(CCNc2nc3c(c(=O)n(C)c(=O)n3C)n2CC)cc1OCC,inactive,–
Cc1ccc(Nc2ncc3c(n2)CC(C)(C)CC3=O)cc1,active: 2 µM,–
Cc1csc(NC(=O)Cc2coc3cc(C)c(C(C)C)cc23)n1,inactive,–
Cc1cc(NC(=O)C2CC2)ncc1NC(=O)c1ccccn1,"inconclusive: 14.1 µM [activator, partial curve, poor fit]",–
Cc1csc(NC(=O)Cc2ccc(Cl)cc2)n1,"inconclusive: 11.2 µM [activator, partial curve, poor fit]",–
CCc1noc(C)c1C(=O)NCCc1ccc(F)cc1,inactive,–
CC(=O)c1c(C)[nH]c(C(=O)Nc2ccc(C)c(C)c2)c1C,"inconclusive: 1.58 µM [activator, partial curve, poor fit]",–
Cc1ccc(NC(=S)N2CCCCCC2)cc1,active: 12.6 µM,–
Cc1ccc(NC(=O)C(C)Oc2ccccc2)cc1S(=O)(=O)N1CCCCCC1 (stereo not given),inactive,–
O=C(NCc1csc(-c2cccs2)n1)c1ccccc1,"inconclusive: 15.8 µM [activator, single point]",–

# Reference: PubChem BioAssay AID624202 (National Center for Advancing Translational Sciences (NCATS), 2012)
